Measurements from the supplement of paper PMC8728848.
Some of the results follow.

Tests used:
Assay in all cases: glycan array binding signal (z-score within array); higher = stronger binding
Details in all cases: glycan notation: IUPAC condensed, linker removed
Fuc(a1-2)Gal = molecular target: Fuc(a1-2)Gal
Procedure, shortened: (§1)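 Glycan array data came from 3228 arrays in the Consortium for Functional Glycomics database, and only arrays with an available protein sequence were kept. Glycan names were put into IUPAC-condensed notation, and columns mapping to the same glycan were averaged. The binding signal is a within-array Z-score, averaged across arrays of one protein sequence run at different concentrations or buffers and across linkers. A negative Z-score can be read as non-binding.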

Fuc(a1-2)Gal(b1-3)GalNAc = molecular target: Fuc(a1-2)Gal(b1-3)GalNAc
Procedure, shortened: as §1

[1] = molecular target: Fuc(a1-2)Gal(b1-3)GalNAc(b1-3)Gal
Procedure, shortened: as §1

[2] = molecular target: Fuc(a1-2)Gal(b1-3)GalNAc(b1-3)Gal(a1-4)Gal(b1-4)Glc
Procedure, shortened: as §1

[3] = molecular target: Fuc(a1-2)Gal(b1-3)GalNAc(b1-4)[Neu5Ac(a2-3)]Gal(b1-4)Glc
Procedure, shortened: as §1

Fuc(a1-2)Gal(b1-3)GlcNAc = molecular target: Fuc(a1-2)Gal(b1-3)GlcNAc
Procedure, shortened: as §1

[4] = molecular target: Fuc(a1-2)Gal(b1-3)GlcNAc(b1-3)Gal(b1-4)Glc
Procedure, shortened: as §1

[5] = molecular target: Fuc(a1-2)Gal(b1-3)[Fuc(a1-4)]GlcNAc
Procedure, shortened: as §1

Fuc(a1-2)Gal(b1-4)Glc = molecular target: Fuc(a1-2)Gal(b1-4)Glc
Procedure, shortened: as §1

Fuc(a1-2)Gal(b1-4)GlcNAc = molecular target: Fuc(a1-2)Gal(b1-4)GlcNAc
Procedure, shortened: as §1

[6] = molecular target: Fuc(a1-2)Gal(b1-4)GlcNAc(b1-3)Gal(b1-4)GlcNAc
Procedure, shortened: as §1

[7] = molecular target: Fuc(a1-2)Gal(b1-4)GlcNAc(b1-3)Gal(b1-4)GlcNAc(b1-3)Gal(b1-4)GlcNAc
Procedure, shortened: as §1

[8] = molecular target: Fuc(a1-2)Gal(b1-4)[Fuc(a1-3)]GlcNAc
Procedure, shortened: as §1

[9] = molecular target: Fuc(a1-2)Gal(b1-4)[Fuc(a1-3)]GlcNAc(b1-3)Gal(b1-4)[Fuc(a1-3)]GlcNAc
Procedure, shortened: as §1

[10] = molecular target: Fuc(a1-2)Gal(b1-4)[Fuc(a1-3)]GlcNAc(b1-3)Gal(b1-4)[Fuc(a1-3)]GlcNAc(b1-3)Gal(b1-4)[Fuc(a1-3)]GlcNAc
Procedure, shortened: as §1

Fuc(a1-2)GlcNAc = molecular target: Fuc(a1-2)GlcNAc
Procedure, shortened: as §1

Fuc(a1-2)[Gal(a1-3)]Gal = molecular target: Fuc(a1-2)[Gal(a1-3)]Gal
Procedure, shortened: as §1

[11] = molecular target: Fuc(a1-2)[Gal(a1-3)]Gal(b1-3)GlcNAc
Procedure, shortened: as §1

[12] = molecular target: Fuc(a1-2)[Gal(a1-3)]Gal(b1-4)Glc
Procedure, shortened: as §1

[13] = molecular target: Fuc(a1-2)[Gal(a1-3)]Gal(b1-4)GlcNAc
Procedure, shortened: as §1

[14] = molecular target: Fuc(a1-2)[Gal(a1-3)]Gal(b1-4)[Fuc(a1-3)]GlcNAc
Procedure, shortened: as §1

[15] = molecular target: Fuc(a1-2)[Gal(a1-4)]Gal(b1-4)GlcNAc
Procedure, shortened: as §1

[16] = molecular target: Fuc(a1-2)[GalNAc(a1-3)]Gal
Procedure, shortened: as §1

[17] = molecular target: Fuc(a1-2)[GalNAc(a1-3)]Gal(b1-3)GlcNAc
Procedure, shortened: as §1

[18] = molecular target: Fuc(a1-2)[GalNAc(a1-3)]Gal(b1-4)Glc
Procedure, shortened: as §1

[19] = molecular target: Fuc(a1-2)[GalNAc(a1-3)]Gal(b1-4)GlcNAc
Procedure, shortened: as §1

[20] = molecular target: Fuc(a1-2)[GalNAc(a1-3)]Gal(b1-4)[Fuc(a1-3)]GlcNAc
Procedure, shortened: as §1

[21] = molecular target: Fuc(a1-2)[GalNAc(a1-4)]Gal(b1-4)GlcNAc
Procedure, shortened: as §1

[22] = molecular target: Fuc(a1-2)[GalNAc(b1-3)]Gal
Procedure, shortened: as §1

Fuc(a1-3)GlcNAc = molecular target: Fuc(a1-3)GlcNAc
Procedure, shortened: as §1

B1: F17dG (Escherichia coli), Q47199 (protein)
chain: MTNFYKVFLAVFILVCCNISQAAVSFIGSTENDVGPSPGSYSRTHAMDNLPFVYNTGNNIGYQNANVWRISKGFCVGLDGKVDLPVVGSLDGQSIYGLTEEVGLLIWMGDTNYSRGTAMSGNSWENVFSGWCVGANTASTQGLSVRVTPVILKRNSSARYSVQKTSIGSIRMRPYNGSSAGSVQTTVNFSLNPFTLNDTVTSCRLLTPSAVNVSLAAISAGQLPSSGDEVVAGTTSLKLQCDAGVTVWATLTDATTPSNRSDILTLTGASTATGVGLRIYKNTDSTPLKFGPDSPVKGNENQWQLSTGTETSPSVRLYVKYVNTGEGINPGTVNGISTFTFSYQ
- glycan array binding signal (z-score) (Fuc(a1-2)Gal): -0.064
- glycan array binding signal (z-score) (Fuc(a1-2)Gal(b1-3)GalNAc): -0.026
- glycan array binding signal (z-score) [1]: -0.125
- glycan array binding signal (z-score) [2]: -0.364
- glycan array binding signal (z-score) [3]: -0.317
- glycan array binding signal (z-score) (Fuc(a1-2)Gal(b1-3)GlcNAc): -0.35
- glycan array binding signal (z-score) [4]: -0.383
- glycan array binding signal (z-score) [5]: -0.366
- glycan array binding signal (z-score) (Fuc(a1-2)Gal(b1-4)Glc): 0.016
- glycan array binding signal (z-score) (Fuc(a1-2)Gal(b1-4)GlcNAc): -0.185
- glycan array binding signal (z-score) [6]: -0.095
- glycan array binding signal (z-score) [7]: -0.381
- glycan array binding signal (z-score) [8]: -0.146
- glycan array binding signal (z-score) [9]: 0.177
- glycan array binding signal (z-score) [10]: -0.311
- glycan array binding signal (z-score) (Fuc(a1-2)GlcNAc): -0.357
- glycan array binding signal (z-score) (Fuc(a1-2)[Gal(a1-3)]Gal): -0.276
- glycan array binding signal (z-score) [11]: -0.399
- glycan array binding signal (z-score) [12]: 0.264
- glycan array binding signal (z-score) [13]: -0.184
- glycan array binding signal (z-score) [14]: -0.289
- glycan array binding signal (z-score) [15]: -0.366
- glycan array binding signal (z-score) [16]: -0.344
- glycan array binding signal (z-score) [17]: -0.052
- glycan array binding signal (z-score) [18]: -0.362
- glycan array binding signal (z-score) [19]: -0.232
- glycan array binding signal (z-score) [20]: -0.357
- glycan array binding signal (z-score) [21]: -0.357
- glycan array binding signal (z-score) [22]: -0.357
- glycan array binding signal (z-score) (Fuc(a1-3)GlcNAc): 0.035
